# This is one part of the list. Cleavage of a single-stranded DNA pool by Rep nickase domains was read by sequencing (3 µM enzyme, 1 h, 37 °C); shown is the middle of each 90-letter strand. Uncut reads are compared with the no-enzyme pool on a log2 scale; uncut sequences lie near 0, cut ones below; no hit call is given. The scaling is to total reads, so uncut sequences can rise above 0 when many others are cut.
# Experiments:
# Test in all cases: uncleaved DNA left, log2 of reads against the no-enzyme library (log2 ratio); higher = less cleavage (more negative = more Rep cleavage of the k-mer); sequences stand for … in CTCGTCCG…ACCGGAGA
# [1] = system: T1, Rep nickase domain of Muscovy duck circovirus
# T1 sequence (Rep 1-111, printed without the tag): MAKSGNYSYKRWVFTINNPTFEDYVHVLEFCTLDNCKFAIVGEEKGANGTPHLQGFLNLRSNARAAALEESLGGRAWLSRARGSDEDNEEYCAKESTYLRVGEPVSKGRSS
# Method: (§1)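 A pool of 90-nt single-stranded DNAs with seven random bases just before the constant AC of the nick site (name = the seven bases) was cut by 3 µM recombinant His6-SUMO-tagged Rep nickase domain (300 nM DNA, 50 mM HEPES pH 8.0, 50 mM NaCl, 1 mM MnCl2, 1 h, 37 °C, three replicates). Uncut DNA was amplified and sequenced.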
# [2] = system: T2, Rep nickase domain of banana bunchy top virus
# T2 sequence (Rep 1-94, printed without the tag): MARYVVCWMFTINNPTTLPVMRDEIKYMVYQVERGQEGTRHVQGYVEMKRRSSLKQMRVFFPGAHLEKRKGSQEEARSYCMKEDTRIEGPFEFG
# Method: as §1
# [3] = system: T3, Rep nickase domain of cabbage leaf curl virus
# T3 sequence (Rep 1-116, printed without the tag): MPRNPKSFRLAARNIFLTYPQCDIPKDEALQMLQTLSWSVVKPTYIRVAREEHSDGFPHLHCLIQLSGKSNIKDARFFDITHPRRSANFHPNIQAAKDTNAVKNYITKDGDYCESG
# Method: as §1
# [4] = system: T4, Rep nickase domain of chickpea chlorotic dwarf virus
# T4 sequence (Rep 1-124, printed without the tag): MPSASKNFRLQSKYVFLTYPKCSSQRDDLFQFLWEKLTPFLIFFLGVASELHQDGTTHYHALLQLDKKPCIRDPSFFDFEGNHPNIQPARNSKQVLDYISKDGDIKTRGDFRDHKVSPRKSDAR
# Method: as §1
# [5] = system: T5, Rep nickase domain of faba bean necrotic yellows virus
# T5 sequence (Rep 1-98, printed without the tag): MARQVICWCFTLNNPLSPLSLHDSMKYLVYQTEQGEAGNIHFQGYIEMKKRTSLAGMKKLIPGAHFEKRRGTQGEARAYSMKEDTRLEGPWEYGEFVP
# Method: as §1
# [6] = system: T6, Rep nickase domain of maize striate mosaic virus
# T6 sequence (Rep 1-117, printed without the tag): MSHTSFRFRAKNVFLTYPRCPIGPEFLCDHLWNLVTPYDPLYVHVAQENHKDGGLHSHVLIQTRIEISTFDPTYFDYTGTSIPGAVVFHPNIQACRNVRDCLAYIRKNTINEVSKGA
# Method: as §1
# [7] = system: T7, Rep nickase domain of porcine circovirus 2
# T7 sequence (Rep 2-116, printed without the tag): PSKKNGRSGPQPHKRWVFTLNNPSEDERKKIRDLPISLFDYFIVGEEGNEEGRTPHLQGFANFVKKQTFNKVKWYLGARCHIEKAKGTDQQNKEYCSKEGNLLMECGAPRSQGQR
# Method: as §1
# [8] = system: T8, Rep nickase domain of tomato golden mosaic virus
# T8 sequence (Rep 1-124, printed without the tag): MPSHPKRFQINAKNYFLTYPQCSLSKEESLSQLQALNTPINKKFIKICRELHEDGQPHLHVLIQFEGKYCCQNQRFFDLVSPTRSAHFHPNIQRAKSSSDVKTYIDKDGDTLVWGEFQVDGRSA
# Method: as §1
# [9] = system: T9, Rep nickase domain of tomato yellow leaf curl virus
# T9 sequence (Rep 1-136, printed without the tag): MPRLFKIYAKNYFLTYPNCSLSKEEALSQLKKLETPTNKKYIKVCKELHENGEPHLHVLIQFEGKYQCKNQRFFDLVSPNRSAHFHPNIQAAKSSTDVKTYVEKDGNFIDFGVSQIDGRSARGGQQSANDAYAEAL
# Method: as §1
# [10] = system: T10, Rep nickase domain of wheat dwarf virus
# T10 sequence (Rep 1-137, printed without the tag): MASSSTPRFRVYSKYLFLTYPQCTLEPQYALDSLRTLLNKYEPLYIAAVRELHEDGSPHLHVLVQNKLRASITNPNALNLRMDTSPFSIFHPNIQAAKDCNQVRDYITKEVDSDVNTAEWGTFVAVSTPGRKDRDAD
# Method: as §1
Sequence,uncleaved DNA left (log2) [1],uncleaved DNA left (log2) [2],uncleaved DNA left (log2) [3],uncleaved DNA left (log2) [4],uncleaved DNA left (log2) [5],uncleaved DNA left (log2) [6],uncleaved DNA left (log2) [7],uncleaved DNA left (log2) [8],uncleaved DNA left (log2) [9],uncleaved DNA left (log2) [10]
ACCAAGT,-0.0239,-0.0499,-0.0573,-0.443,0.0655,-1.09,0.0297,-0.00387,-0.00983,-0.0111
CGGATAT,-0.0283,-0.0144,0.719,1.86,0.0392,2.07,0.177,-0.00704,-0.00635,0.0868
AATGAGG,0.135,0.0483,0.318,0.798,-0.014,0.261,0.155,0.195,0.00218,0.187
ACAGAAC,-0.0039,0.0294,-0.0901,-0.315,0.0716,-0.679,0.128,0.0736,-0.0762,-0.0086
TTCCGGG,0.105,0.0713,0.745,0.857,0.159,1.81,0.251,0.0813,0.0554,0.158
CCCATCA,-0.0269,0.118,0.394,-0.14,-0.000995,0.0489,0.0446,0.0416,0.15,0.205
CATTGTC,-0.0267,-0.209,-0.876,-0.203,0.0353,-1.08,-0.02,-0.182,0.116,-0.0937
TTTGAAG,0.219,0.0143,-0.643,-0.485,0.13,-1.09,0.317,0.0684,0.00356,-0.0229
GTCGATG,-0.222,-0.141,0.161,0.519,-0.124,1.39,-0.163,0.00183,-0.124,-0.025
GCCCCCC,-0.00232,0.0665,0.194,0.47,-0.0949,0.51,-0.241,-0.0639,-0.00925,0.0984
TATTAGG,-0.156,-0.14,0.339,1.18,-0.0599,1.38,0.047,-0.0464,-0.254,-0.107
CGTGTCG,-0.0294,-0.235,-0.816,-0.288,-0.182,-0.924,0.0619,-0.285,-0.07,-0.138
TAATGAG,0.18,0.0112,-1.2,-1.3,0.17,-1.02,0.24,0.0434,0.16,-0.0229
GACTGTC,0.0743,-0.0084,0.0681,0.557,0.103,0.892,-0.119,0.0759,-0.00796,0.0831
AAATTAA,-0.0822,0.00842,-0.287,-0.803,0.0413,-0.823,-0.293,0.0138,0.00553,-0.0591
CTGTCAT,-0.226,-0.239,-0.136,-0.425,-0.0971,-0.386,-1.13,-0.332,-0.16,-0.192
GATTTGG,0.0278,-0.141,-0.039,0.0586,-0.00952,-0.626,0.104,0.0169,-0.0439,-0.0188
GATTCAG,-0.00641,-0.0277,-0.371,-0.455,-0.0264,-1.01,0.0789,-0.0851,0.0469,-0.0681
TTACTGG,0.158,0.0444,0.377,0.549,0.134,1.03,0.285,0.139,0.0674,0.0359
GAGCGCT,0.0101,0.0303,0.0436,0.373,0.00149,1.2,-0.239,-0.00338,-0.037,0.0195
CATTCGC,0.0413,-0.0602,-0.816,-0.459,0.0386,-1.11,0.129,-0.0851,0.0882,-0.052
CGGACAA,-0.0458,0.0625,0.872,2.01,0.0936,2.22,0.239,-0.0698,0.045,0.141
CATAGTG,0.0255,-0.05,-0.626,-0.468,0.0882,-1.1,0.0981,-0.0125,0.189,-0.148
CGAAATC,-0.0406,-0.02,-0.0613,-0.106,-0.00536,-0.624,-0.0373,-0.211,-0.000313,0.0189
CCTTAGC,0.0498,0.0342,-0.0328,-0.214,0.00225,-1.05,0.0314,0.102,0.0204,0.0111
TCTAGGT,-0.097,-0.181,0.339,1.12,-0.196,1.56,-0.131,-0.0643,-0.267,-0.178
GTCCGGG,0.0218,-0.00205,0.563,1.09,0.0534,1.81,0.119,0.0675,0.0311,0.0283
ATAAGAA,0.16,0.0141,-0.361,-0.797,0.0374,-0.664,0.133,0.0907,0.0247,0.0402
CCGAAGA,0.0065,0.0188,0.112,0.264,0.0504,-0.239,0.147,-0.165,-0.144,-0.038
AGAATTA,0.0299,-0.0775,0.103,-0.836,-0.0185,-0.177,-0.223,0.0349,-0.0223,0.0188
